Measured values as given in PubChem BioAssay AID1745845 (National Center for Advancing Translational Sciences (NCATS), 2022).
About 2,600 (0.72%) of roughly 360,000 compounds were called active. The inconclusive results got no clear call from the source; some entries with a clear call stand among them for comparison. Calls follow the shape of the dose curve; as a rule, active = well fitted inhibition curve with a large enough effect; inconclusive = small, poorly fitted or top-dose-only effect; inactive = no such curve, though single readings can be large or run the other way. Potencies of inconclusive entries are doubtful fits and often do not repeat.

Assay: Primary qHTS for Inhibitors of ATXN expression; also: nearly all actives have a fitted effect of over 55% in size
Conditions: HEK-293 ATXN2-luciferase reporter, luminescence, 24 h; activity change, negative = inhibition: at 57 µM (top of the series)
Method in brief: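 ATXN2-luciferase reporter cells (luciferase flanked by upstream and downstream ATXN2 gene portions) were treated 24 h at 37 °C with compounds at up to 57 uM. SteadyGlo luminescence gave expression; GF-AFC fluorescence gave viability.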
% is scaled to controls: 0 for no effect and ±100 for the full control effect; potency is read from the fitted curve at half-maximal effect; tags tell the direction and shape of the fitted curve.

Potency, active:
Cc1nc(-c2cccc(NC(=O)Nc3ccc([N+](=O)[O-])cc3)c2)no1 12.6 µM
Cc1cccc(N2CCN(CCCNC(=O)C3CCCN(c4ncnc5c4nc4n5CCCCC4)C3)CC2C)c1 (stereo not drawn) 25.1 µM
CCCCCCCCCCCCCCCCCCNC(=O)OC1CCN(C(=O)OC[C@H](COC(=O)N(Cc2cccc[n+]2CC)C(=O)c2ccccc2OC)OC)CC1 35.5 µM

Potency, inconclusive:
COC(=O)c1ccc2c(=O)n(CCCCCC(=O)N3CCN(c4ccccc4)CC3)c(=O)[nH]c2c1 31.6 µM [inhibitor, single point]
O=C(CC1(O)C(=O)Nc2cc(Cl)cc(Cl)c21)c1ccccc1O (stereo not drawn) 14.1 µM [inhibitor, partial curve, poor fit]
Cc1ccc2nc(N(CCCN(C)C)C(=O)c3ccc(S(=O)(=O)N4CCc5ccccc5C4)cc3)sc2c1 25.1 µM [inhibitor, partial curve, poor fit]
O=C(NC1CCCCC1)C(c1cccs1)N(Cc1cccs1)C(=O)c1cccs1 (stereo not drawn) 14.1 µM [inhibitor, partial curve, poor fit]
CCc1nc2ccc(C(=O)NCc3ccc4c(c3)OCO4)cn2c1N(C)CCC(C)C 39.8 µM [inhibitor, single point]
Cc1cc(NC(=O)CN(C)CC(=O)Nc2ccc(Cl)c(C(F)(F)F)c2)no1 0.752 µM [inhibitor, full curve, poor fit]
O=C(/C=C/c1cccc([N+](=O)[O-])c1)Nc1ccc(NC(=O)c2cccs2)cc1 14.1 µM [inhibitor, partial curve]
Cc1noc(C)c1COc1cccc(C(=O)N2CCN(C/C=C/c3ccccc3)CC2)c1 35.5 µM [inhibitor, single point]
CC(C)Cn1c(N)c(C(=O)COC(=O)c2cnc(Cl)c(Cl)c2)c(=O)n(C)c1=O 0.752 µM [inhibitor, full curve, poor fit]
CC(C)Oc1ccc(C(=O)Nc2ccc3c(c2)CCCN3C(=O)c2cccs2)cc1 39.8 µM [inhibitor, single point]
C=CC[C@H](CC(=O)N(CCO)Cc1ccccc1)C(=O)N[C@@H](COC(=O)[C@@H](CC=C)Cc1ccc(F)cc1)Cc1ccccc1 39.8 µM [inhibitor, single point]
COc1ccc(C2CC(c3cccc(C(F)(F)F)c3)=NN2c2ccc(S(N)(=O)=O)cc2)cc1 (stereo not drawn) 35.5 µM [inhibitor, single point]
Cc1ccc(O)c(N=Nc2nccs2)c1 1.68 µM [inhibitor, full curve, poor fit]
CS(=O)(=O)N(CC(=O)Nc1ccc(Cl)c(Cl)c1)C1CCCCC1 25.1 µM [inhibitor, single point]
NCCCn1c(C(=O)c2cc(Cl)c(N)c(Cl)c2)c2ccc([N+](=O)[O-])cc2[n+]1[O-] 1 µM [inhibitor, full curve, poor fit]
OC[C@@H]1CN(Cc2ccc3c(c2)OCO3)C[C@H](n2cnc3c(N4CCN(c5ccccc5)CC4)ncnc32)O1 31.6 µM [inhibitor, single point]
COc1cc([N+](=O)[O-])cc(/C=N/NC(=O)c2ccc(C)nc2)c1O 28.2 µM [inhibitor, single point]
CCN(c1ccccc1)C(CNS(=O)(=O)c1ccccc1)c1ccccc1 (stereo not drawn) 35.5 µM [inhibitor, single point]
CN(c1cccc(NC(=O)c2ccc(CN3CCc4ccccc4C3)cc2)c1)S(C)(=O)=O 13.4 µM [inhibitor, partial curve, poor fit]
COCCOc1ccc(C(F)(F)F)cc1NC(=O)CN1C(=O)NC2(CCCc3ccccc32)C1=O (stereo not drawn) 31.6 µM [inhibitor, single point]
OC(c1ccc(Cl)cc1)c1ncc(-c2ccc(Oc3ccccc3)cc2)[nH]1 (stereo not drawn) 39.8 µM [inhibitor, single point]
C=C(C)COc1ccc(-c2[nH]ncc2-c2ccccc2OC)c(O)c1 25.1 µM [inhibitor, single point]
O=C(Nc1cccc(NC(=O)c2ccccc2Cl)c1)c1ccc(F)cc1 0.267 µM [inhibitor, partial curve, poor fit]
CCOC(=O)C1=C(COC(=O)CCOc2ccc(C)cc2)NC(=O)NC1C (stereo not drawn) 28.2 µM [inhibitor, single point]
CCC1CSC(Nc2ccc(C(=O)/C=C/c3ccc(OC)c(OC)c3)cc2)=N1 (stereo not drawn) 39.8 µM [inhibitor, single point]
O=C(NNC(=S)Nc1cccc(C(F)(F)F)c1)c1ccccc1Cl 31.6 µM [inhibitor, single point]
CC1Cc2ccccc2N1C(=O)C1CCCN(S(=O)(=O)c2cccc3cccnc23)C1 (stereo not drawn) 25.1 µM [inhibitor, single point]
Cc1c(CCC(=O)NCCCn2ccnc2)c(=O)oc2c(C)c3oc4c(c3cc12)CCCC4 31.6 µM [inhibitor, partial curve]

Activity change, negative = inhibition, inactive:
O=C(Nc1cccc(C(=O)OCc2cc(=O)n3nc(C4CC4)sc3n2)c1)c1cccc(F)c1 13.7%
COc1ccccc1OCCn1c(=S)[nH]c2ccccc21 -5.1%
O=C(O)c1ccc(CNC(=O)c2ccc3c(c2)OCCO3)cc1 -5.36%
O=C(O)c1cc(N2CCCCC2)nc2ccccc12 -6.45%
Cc1ccc(C(=O)c2oc3ccccc3c2NC(=O)Cc2coc3cc(C)ccc23)cc1 4.03%
Cc1ccccc1-c1nc(CS(=O)CC(=O)N2CCN(c3cc(Cl)ccc3C)CC2)c(C)o1 (stereo not drawn) -25.4%
CC(=O)c1ccc(NC(=O)C(C)OC(=O)/C=C/c2ccco2)cc1 (stereo not drawn) 3.95%
